Measured values taken from PubChem BioAssay AID504332 (National Center for Advancing Translational Sciences (NCATS), 2011).
Screen size: about 350,000 compounds; about 31,000 (8.9%) were called active. The shares of active, inactive and inconclusive entries below differ from those in the screen. The call rests on the fitted dose curve; in most records, active means well fitted inhibition curve with a large enough effect; inconclusive means small, poorly fitted or top-dose-only effect; inactive means no such curve, though single readings can be large or run the other way. Potencies of inconclusive entries are doubtful fits and often do not repeat.

target: Histone-lysine N-methyltransferase EHMT2 (Homo sapiens) (UniProt Q96KQ7); test: qHTS Assay for Inhibitors of Histone Lysine Methyltransferase G9a; details: G9a H3K9 monomethylation, AlphaScreen, 2 h; activity, negative = inhibition: at 59 µM (top of the series) unless noted; further: nearly all actives have a fitted effect of over 75% in size
Sequence of UniProt Q96KQ7 (Q96KQ7 whole entry, looked up): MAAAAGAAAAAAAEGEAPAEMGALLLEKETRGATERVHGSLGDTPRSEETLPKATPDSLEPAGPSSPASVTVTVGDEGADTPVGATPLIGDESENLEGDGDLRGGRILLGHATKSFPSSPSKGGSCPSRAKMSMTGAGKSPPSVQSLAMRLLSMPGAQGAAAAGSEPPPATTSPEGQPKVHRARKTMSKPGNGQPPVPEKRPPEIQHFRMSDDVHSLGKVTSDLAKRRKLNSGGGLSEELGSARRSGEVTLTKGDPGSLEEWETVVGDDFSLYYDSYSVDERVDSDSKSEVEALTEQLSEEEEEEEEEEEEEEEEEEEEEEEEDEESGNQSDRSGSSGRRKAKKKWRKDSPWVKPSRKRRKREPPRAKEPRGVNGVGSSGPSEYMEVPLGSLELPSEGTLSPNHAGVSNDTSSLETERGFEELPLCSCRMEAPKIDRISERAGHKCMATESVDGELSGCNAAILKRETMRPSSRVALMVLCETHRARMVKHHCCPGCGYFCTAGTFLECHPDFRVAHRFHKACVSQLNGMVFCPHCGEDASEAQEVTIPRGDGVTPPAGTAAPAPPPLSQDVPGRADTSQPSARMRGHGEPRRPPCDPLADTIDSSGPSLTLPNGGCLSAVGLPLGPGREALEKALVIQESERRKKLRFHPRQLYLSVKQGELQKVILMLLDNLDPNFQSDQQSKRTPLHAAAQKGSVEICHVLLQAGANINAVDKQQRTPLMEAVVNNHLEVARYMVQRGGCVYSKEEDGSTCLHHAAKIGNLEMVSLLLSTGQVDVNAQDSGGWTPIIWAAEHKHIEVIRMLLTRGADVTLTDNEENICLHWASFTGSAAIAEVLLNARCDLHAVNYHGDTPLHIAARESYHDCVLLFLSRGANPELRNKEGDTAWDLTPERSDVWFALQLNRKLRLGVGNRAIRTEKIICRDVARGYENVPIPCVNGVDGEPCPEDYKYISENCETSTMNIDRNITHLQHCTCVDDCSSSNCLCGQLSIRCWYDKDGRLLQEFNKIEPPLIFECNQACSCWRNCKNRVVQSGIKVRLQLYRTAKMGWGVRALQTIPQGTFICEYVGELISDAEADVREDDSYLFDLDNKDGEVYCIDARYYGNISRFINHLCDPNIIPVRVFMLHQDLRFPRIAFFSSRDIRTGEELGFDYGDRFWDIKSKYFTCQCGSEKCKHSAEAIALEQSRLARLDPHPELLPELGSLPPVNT
In short: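 Quantitative HTS format: methyltransferase activity on a biotin-tagged H3K9 peptide is measured by AlphaScreen, using a rabbit anti-monomethyl-H3K9 antibody with streptavidin donor and anti-IgG acceptor beads. Final levels are 20 nM enzyme, 500 nM peptide, 20 uM SAM; 2 h RT.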
On the % scale 0 is the no-effect control and ±100 the full control effect; potency means the concentration at half of the fitted maximal effect; tags describe the fitted curve by direction and shape.

Row | SMILES | Potency | activity, negative = inhibition
1 | COc1ccc(Cl)cc1NC(=O)CSc1cn(CC(=O)N2CCCCCC2)c2ccccc12 | inconclusive: 7.08 µM [inhibitor, partial curve, poor fit] | –
2 | CN(C)c1ccc(/C=N/N=C2/SC(CC(=O)O)C(=O)N2c2ccc(O)cc2)cc1 (configuration not stated) | – | inconclusive: -77% [inhibitor]
3 | Fc1ccccc1NC(=S)Nc1ccc(CN2CCOCC2)cc1 | inconclusive: 50.1 µM [inhibitor, partial curve] | –
4 | O=C(NCCN=C1NS(=O)(=O)c2ccccc21)c1ccc2nccnc2c1 | inconclusive: 70.8 µM [inhibitor, partial curve] | –
5 | COc1cc(NC(=O)C(CCSC)NS(=O)(=O)c2ccc3c(c2)oc(=O)n3C)cc(OC)c1 (configuration not stated) | inactive | –
6 | CCc1nnc(NC(=O)C2CC(=O)N(c3ccc4c(c3)OCCO4)C2)s1 (configuration not stated) | active: 10 µM | –
7 | CCc1ccc(S(=O)(=O)/N=C2\C=C(Nc3ccc(C(=O)O)cc3)C(=O)c3ccccc32)cc1 | active: 8.91 µM | –
8 | Cc1ccc(SCC(=O)NCCN2C(=O)CSC2=O)c(C)c1 | inactive | –
9 | Cc1ccc(C)c(Cn2nnc3c(=O)[nH]c(C(=O)NCc4ccco4)nc32)c1 | inconclusive: 79.4 µM [inhibitor, single point] | –
10 | CC(=O)Nc1nc2n(n1)C(c1ccccc1)C=C(c1ccccc1)N2 (configuration not stated) | inconclusive: 25.1 µM [inhibitor, single point] | –
11 | Oc1ccc2ccccc2c1C=NC12CN3CCN(CN(C3)C1)C2 | inconclusive: 12.6 µM [inhibitor, partial curve, poor fit] | –
12 | CCc1ccc(Oc2coc3cc(O)ccc3c2=O)cc1 | inactive | –
13 | COc1cc(Cl)ccc1OCc1cc(C(=O)N2CCCCC2c2cccnc2)no1 (configuration not stated) | inconclusive: 89.1 µM [inhibitor, partial curve, poor fit] | –
14 | CCc1nn2c(N3CCOCC3)cc(C)nc2c1-c1ccccc1 | inactive | –
15 | C=CCc1c(C)nc2c(-c3ccccc3)cnn2c1N1CCOCC1 | inactive | –
16 | Cc1ccc(-c2nnc3ccccc3c2C(=O)Nc2ccccc2F)cc1 | inactive | –
17 | CCOc1cc(N2CCOCC2)c(OCC)cc1NC(=O)CN1C(=O)NC2(CCCCC2C)C1=O (configuration not stated) | inconclusive: 89.1 µM [inhibitor, single point] | –
18 | Cc1ccc2occ(CC(=O)N(Cc3ccc(C(C)C)cc3)C3CCS(=O)(=O)C3)c2c1 (configuration not stated) | inactive | –
19 | Cc1nc(-n2[nH]c3c(c2=O)CCCC3)[nH]c(=O)c1Cc1ccccc1 | inactive | –
20 | COc1ccc(NC(=O)c2c(NCc3cccc(OC)c3)sc3c2CCCC3)cc1 | inconclusive: 1.41 µM [inhibitor, full curve, poor fit] | –
21 | Clc1cccc(CSc2ccc(-c3ccco3)nn2)c1 | active: 15.8 µM | –
22 | COc1cc(/C=N/Nc2ccc(C(F)(F)F)cn2)ccc1O | inconclusive: 89.1 µM [inhibitor, single point] | –
23 | O=C(NCCOC(=O)c1ccc(Cl)cc1)c1cccnc1 | inconclusive: 89.1 µM [inhibitor, single point] | –
24 | COc1ccc(C(=O)CN2C(=O)c3ccccc3S2(=O)=O)cc1Br | active: 50.1 µM | –

Row | SMILES | Potency | activity, negative = inhibition
25 | NS(=O)(=O)c1ccc(-c2ccc(/C=C3\SC(=S)N(C4CCS(=O)(=O)C4)C3=O)o2)cc1 (configuration not stated) | inconclusive: 56.2 µM [inhibitor, partial curve, poor fit] | –
26 | CCN1CCc2nc3sc(C(=O)c4ccc(F)cc4)c(N)c3cc2C1 | inconclusive: 14.1 µM [inhibitor, partial curve, poor fit] | –
27 | O=C(COc1cccnc1[N+](=O)[O-])Nc1ccc2c(c1)OCO2 | inconclusive: 44.7 µM [inhibitor, partial curve] | –
28 | CCC(c1nnnn1CCOC)N1CCN(Cc2ccccc2OC)CC1 (configuration not stated) | inconclusive: 89.1 µM [inhibitor, single point] | –
29 | COC1=C/C(=C/c2c(O)c(C#N)c3ccccn23)C=CC1=O | inconclusive: 25.1 µM [inhibitor, single point] | –
30 | Cc1cccc2nc(-c3cccnc3)c(NCCC(C)C)n12 | inconclusive: 50.1 µM [inhibitor, partial curve, poor fit] | –
31 | CCCCCCOC(=O)Sc1nc2ccccc2o1 | inconclusive: 1.78 µM [inhibitor, full curve, poor fit] | –
32 | CS(=O)(=O)N1CCC(Oc2ccccc2C(=O)NCCCc2cccnc2)CC1 | inactive | –
33 | COc1cc(NC(=O)C2CCCN(S(=O)(=O)c3cccc4nsnc34)C2)cc(OC)c1 (configuration not stated) | inconclusive: 44.7 µM [inhibitor, partial curve] | –
34 | O=C(Cn1cc(S(=O)(=O)Cc2ccc([N+](=O)[O-])cc2)c2ccccc21)N1CCOCC1 | active: 8.91 µM | –
35 | Cc1nn(C)cc1-c1n[nH]c(=S)n1-c1ccc(Cl)cc1 | active: 5.62 µM | –
36 | CCC(C)NCCOCCOc1ccc(Br)cc1 (configuration not stated) | inconclusive: 8.91 µM [inhibitor, full curve, poor fit] | –
37 | Cc1nc(NC(=O)c2ccccc2)sc1-c1csc(NCc2ccccc2)n1 | active: 39.8 µM | –
38 | CC1Oc2ccccc2OC1(O)c1ccccn1 (configuration not stated) | active: 20 µM | –
39 | CC(C)C1C(C#N)=C(N)Oc2n[nH]c(-c3ccc4ccccc4c3)c21 (configuration not stated) | inconclusive: 25.1 µM [inhibitor, single point] | –
40 | CCc1ccc2oc(C(=O)Nc3ccccc3C(=O)OC)cc(=O)c2c1 | inactive | –
41 | Nc1ccccc1SC1CC(=O)N(c2ccc3c(c2)OCO3)C1=O (configuration not stated) | inactive | –
42 | COc1ccc(NC(=O)Cn2c(=O)ccc3cc(S(=O)(=O)N4CCCC4)ccc32)cc1Cl | inactive | –
43 | CN(CCCNC(=O)Cn1c(=O)c2cccn2c2ccccc21)Cc1ccccc1 | inconclusive: 1.41 µM [inhibitor, full curve, poor fit] | –
44 | CCOC(=O)c1c(-c2ccc(C)o2)csc1NC(=O)CN1CCOCC1 | active: 50.1 µM | –
45 | COc1ccc2oc(=O)c(-c3ccccc3C(=O)N3CCOCC3)cc2c1 | inconclusive: 39.8 µM [inhibitor, single point] | –
46 | CCCCC1CN2CCc3c([nH]c4ccccc34)C2(C)C1 (configuration not stated) | active: 79.4 µM | –
47 | Cc1cccc(N2CCN(C(=S)NCc3ccco3)CC2)c1C | inconclusive: 89.1 µM [inhibitor, single point] | –
48 | CN1CCN(C(=O)c2ccc3c(c2)NC(=O)C(C)(C)O3)CC1 | inconclusive: 89.1 µM [inhibitor, single point] | –

Row | SMILES | Potency | activity, negative = inhibition
49 | COc1cccc(CNc2ccc(S(N)(=O)=O)cc2)c1OC | – | inactive: 13.6% [at 12.7 µM]
50 | CN(C)CCCOc1ccc(C(C)(C)c2ccccc2)cc1 | inconclusive: 6.31 µM [inhibitor, partial curve, poor fit] | –
51 | CCCCn1c(NCc2ccc(N(C)C)cc2)nc2ccccc21 | inconclusive: 20 µM [inhibitor, partial curve, poor fit] | –
52 | COc1ccccc1CN1C[C@@H]2C[C@@H](c3cccc(C)c3)N3CCC[C@@]23C1=O | inconclusive: 79.4 µM [inhibitor, partial curve, poor fit] | –
53 | Cc1ccc2nc(-c3ccc(SCC(=O)O)nc3)[nH]c2c1 | inconclusive: 70.8 µM [inhibitor, single point] | –
54 | CC(C)S(=O)(=O)c1csc(NC(=O)Nc2cc(Cl)ccc2Cl)c1Cl | inconclusive: 50.1 µM [inhibitor, partial curve, poor fit] | –
55 | COC(=O)c1ccc(COC(=O)C(NC(=O)Cc2ccccc2)C(C)C)cc1 (configuration not stated) | inactive | –
56 | COC(=O)c1ccc2c(c1)C(C)(C)C(/C=C/c1ccccc1O)=[N+]2C | inconclusive: 22.4 µM [inhibitor, full curve, poor fit] | –
57 | Cc1cccn2c(=O)c(C(=O)NCCc3ccc(S(N)(=O)=O)cc3)c(O)nc12 | inconclusive: 17.8 µM [inhibitor, partial curve, poor fit] | –
58 | CCN(CC(=O)Nc1c(F)cccc1F)C(=O)C1CCC1 | inactive | –
59 | CCC(=O)c1ccc(OCC(O)CNC2CCCC2)cc1 (configuration not stated) | inconclusive: 89.1 µM [inhibitor, single point] | –
60 | CC(C)c1ccc(C(=O)Nc2ccc(CN3CCOCC3)cc2)cc1 | inactive | –
61 | COc1cccc(NC(=O)CN(C)C(=O)c2cc3c(s2)CCC3)c1 | – | inactive: 19.3% [at 0.501 µM]
62 | COc1ccc(/C(C)=N/NS(=O)(=O)c2cc(C)ccc2C)c(OC)c1 | inconclusive: 89.1 µM [inhibitor, single point] | –
63 | Fc1ccc(OCc2nc3ccccc3s2)cc1 | inactive | –
64 | CN(c1cccc(NS(=O)(=O)c2cccc([N+](=O)[O-])c2)c1)S(C)(=O)=O | inconclusive: 0.112 µM [inhibitor, full curve, poor fit] | –
65 | CCN(CC)CCCNC(=O)CC1Oc2ccc(C)cc2NC1=O (configuration not stated) | inconclusive: 56.2 µM [inhibitor, partial curve, poor fit] | –
66 | CCOc1cccc(C(=O)Nc2nccs2)c1 | inconclusive: 31.6 µM [inhibitor, single point] | –
67 | COc1cc2c(cc1OC)C1(CCCC1)CNC2c1ccc([N+](=O)[O-])cc1 (configuration not stated) | active: 35.5 µM | –
68 | COc1ccc(-c2n[nH]c(=S)n2-c2ccc(C)cc2)cc1 | active: 0.891 µM | –
69 | Cc1ccccc1CSc1nc2ccsc2c(=O)n1CCC(C)C | inactive | –
70 | Cc1cc(C)nc(SCc2ccc3nonc3c2)n1 | inconclusive: 39.8 µM [inhibitor, single point] | –
71 | COc1ccc(C2/C=C\CN(CC(C)(C)C)CC(=O)N2Cc2ccc(F)cc2)cc1 (configuration not stated) | inconclusive: 8.91 µM [inhibitor, single point] | –
72 | Cn1cc(C(=O)Nc2ccc(F)c(F)c2)cn1 | inactive | –
